Results taken from the supplement of paper PMC10369915.
The other results are listed elsewhere or left out. Rule as the data show it: active = 3.2 or more and inactive = the rest. The signal is at background level for most entries.

target: SHP2 C-SH2 domain E139D; test: enrichment score (SH2-bound / input frequency) (ratio); bacterial display of known human phosphotyrosine sites (pTyr-Var adds point mutants) read by sequencing; higher = stronger binding; tyrosines were phosphorylated by kinases first; settings: peptide library: pTyr-Var
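Also: displayed peptides selected on beads carrying the immobilized SH2 domain, with library peptides lacking any tyrosine serving as negative controls.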

Enrichment score, inactive:
KSLFHYRQYSA [CPS1_Y1491] 0.322
TWSRSYRSDRL [CRYBB1_Y131_S129R] 0.334
LRTAVYHEILI [CREBBP_Y1450] 1.34
TISPFYCQSLF [CRYAA_Y48_R49C_YF] 0.89
GVLKEYGVKVL [CPS1_Y529] 1.2
FQVRRYDCDCD [CRYGS_Y21_G18V] 0.696
FAKTQYPDVYA [CRX_Y63] 0.772
LQPNNYQFCGG [CSF1R_Y969] 0.735
FAKTQYPDIYA [CRX_Y63_V66I] 1.35
MIRSAYALGGL [CPS1_Y590] 0.498
LGMSQYFRLFN [CPT2_Y217_D213G] 1.64
LFQAKYQIRFR [CRLF1_Y272_YF] 1.3
IEKLPYIDKWF [CPS1_Y872_T871P] 1.02
LENSTYQYIHV [CRB1_Y760_R764H] 0.764
MIRSTYALGGL [CPS1_Y590_A589T] 1
PEEKVYLSRGD [CRACR2A_Y141_H136P] 0.56
FVHDNYVIWRT [CPS1_Y1450_R1453W] 1.43
NCLRVYVAGRF [CRB1_Y711_E710V] 1.04

target: SHP2 C-SH2 domain wild-type; test: as above; settings: peptide library: pTyr-Var

Enrichment score, inactive:
KSLFHYRQYSA [CPS1_Y1491] 0.315
TWSRSYRSDRL [CRYBB1_Y131_S129R] 0.295
LRTAVYHEILI [CREBBP_Y1450] 2.07
TISPFYCQSLF [CRYAA_Y48_R49C_YF] 1.15
GVLKEYGVKVL [CPS1_Y529] 1.01
FQVRRYDCDCD [CRYGS_Y21_G18V] 0.712
FAKTQYPDVYA [CRX_Y63] 0.719
LQPNNYQFCGG [CSF1R_Y969] 0.802
FAKTQYPDIYA [CRX_Y63_V66I] 1.14
MIRSAYALGGL [CPS1_Y590] 0.495
LGMSQYFRLFN [CPT2_Y217_D213G] 2.39
LFQAKYQIRFR [CRLF1_Y272_YF] 1.23
IEKLPYIDKWF [CPS1_Y872_T871P] 1.05
LENSTYQYIHV [CRB1_Y760_R764H] 1.12
MIRSTYALGGL [CPS1_Y590_A589T] 0.712
PEEKVYLSRGD [CRACR2A_Y141_H136P] 0.625
FVHDNYVIWRT [CPS1_Y1450_R1453W] 1.55
NCLRVYVAGRF [CRB1_Y711_E710V] 0.656

target: SHP2 N-SH2 domain L43F; test: as above; settings: peptide library: pTyr-Var

Enrichment score, inactive:
KSLFHYRQYSA [CPS1_Y1491] 0.417
TWSRSYRSDRL [CRYBB1_Y131_S129R] 0.266
LRTAVYHEILI [CREBBP_Y1450] 2.25
TISPFYCQSLF [CRYAA_Y48_R49C_YF] 0.846
GVLKEYGVKVL [CPS1_Y529] 1.15
FQVRRYDCDCD [CRYGS_Y21_G18V] 0.777
FAKTQYPDVYA [CRX_Y63] 1.01
LQPNNYQFCGG [CSF1R_Y969] 0.777
FAKTQYPDIYA [CRX_Y63_V66I] 0.891
MIRSAYALGGL [CPS1_Y590] 0.575
LGMSQYFRLFN [CPT2_Y217_D213G] 1.67
LFQAKYQIRFR [CRLF1_Y272_YF] 1.29
IEKLPYIDKWF [CPS1_Y872_T871P] 1.17
LENSTYQYIHV [CRB1_Y760_R764H] 0.871
MIRSTYALGGL [CPS1_Y590_A589T] 0.843
PEEKVYLSRGD [CRACR2A_Y141_H136P] 0.538
FVHDNYVIWRT [CPS1_Y1450_R1453W] 1.71
NCLRVYVAGRF [CRB1_Y711_E710V] 0.421

target: SHP2 N-SH2 domain T42A; test: as above; settings: peptide library: pTyr-Var

Enrichment score, active:
LENSTYQYIHV [CRB1_Y760_R764H] 3.33

Enrichment score, inactive:
KSLFHYRQYSA [CPS1_Y1491] 0.52
TWSRSYRSDRL [CRYBB1_Y131_S129R] 0.328
LRTAVYHEILI [CREBBP_Y1450] 2.87
TISPFYCQSLF [CRYAA_Y48_R49C_YF] 0.774
GVLKEYGVKVL [CPS1_Y529] 1.18
FQVRRYDCDCD [CRYGS_Y21_G18V] 0.644
FAKTQYPDVYA [CRX_Y63] 0.785
LQPNNYQFCGG [CSF1R_Y969] 0.778
FAKTQYPDIYA [CRX_Y63_V66I] 1.08
MIRSAYALGGL [CPS1_Y590] 0.537
LGMSQYFRLFN [CPT2_Y217_D213G] 1.51
LFQAKYQIRFR [CRLF1_Y272_YF] 1.31
IEKLPYIDKWF [CPS1_Y872_T871P] 0.964
MIRSTYALGGL [CPS1_Y590_A589T] 0.69
PEEKVYLSRGD [CRACR2A_Y141_H136P] 0.564
FVHDNYVIWRT [CPS1_Y1450_R1453W] 1.49
NCLRVYVAGRF [CRB1_Y711_E710V] 0.604

target: SHP2 N-SH2 domain T52S; test: as above; settings: peptide library: pTyr-Var

Enrichment score, inactive:
KSLFHYRQYSA [CPS1_Y1491] 0.422
TWSRSYRSDRL [CRYBB1_Y131_S129R] 0.383
LRTAVYHEILI [CREBBP_Y1450] 1.97
TISPFYCQSLF [CRYAA_Y48_R49C_YF] 0.673
GVLKEYGVKVL [CPS1_Y529] 1.01
FQVRRYDCDCD [CRYGS_Y21_G18V] 0.943
FAKTQYPDVYA [CRX_Y63] 0.972
LQPNNYQFCGG [CSF1R_Y969] 0.681
FAKTQYPDIYA [CRX_Y63_V66I] 1.12
MIRSAYALGGL [CPS1_Y590] 0.593
LGMSQYFRLFN [CPT2_Y217_D213G] 1.24
LFQAKYQIRFR [CRLF1_Y272_YF] 1.37
IEKLPYIDKWF [CPS1_Y872_T871P] 1.07
LENSTYQYIHV [CRB1_Y760_R764H] 0.643
MIRSTYALGGL [CPS1_Y590_A589T] 0.877
PEEKVYLSRGD [CRACR2A_Y141_H136P] 0.449
FVHDNYVIWRT [CPS1_Y1450_R1453W] 1.37
NCLRVYVAGRF [CRB1_Y711_E710V] 0.806

target: SHP2 N-SH2 domain wild-type; test: as above; settings: peptide library: pTyr-Var

Enrichment score, inactive:
KSLFHYRQYSA [CPS1_Y1491] 0.528
TWSRSYRSDRL [CRYBB1_Y131_S129R] 0.374
LRTAVYHEILI [CREBBP_Y1450] 1.8
TISPFYCQSLF [CRYAA_Y48_R49C_YF] 1.18
GVLKEYGVKVL [CPS1_Y529] 1.01
FQVRRYDCDCD [CRYGS_Y21_G18V] 0.787
FAKTQYPDVYA [CRX_Y63] 0.591
LQPNNYQFCGG [CSF1R_Y969] 0.902
FAKTQYPDIYA [CRX_Y63_V66I] 1.06
MIRSAYALGGL [CPS1_Y590] 0.624
LGMSQYFRLFN [CPT2_Y217_D213G] 1.4
LFQAKYQIRFR [CRLF1_Y272_YF] 1.09
IEKLPYIDKWF [CPS1_Y872_T871P] 1.09
LENSTYQYIHV [CRB1_Y760_R764H] 0.651
MIRSTYALGGL [CPS1_Y590_A589T] 0.83
PEEKVYLSRGD [CRACR2A_Y141_H136P] 0.788
FVHDNYVIWRT [CPS1_Y1450_R1453W] 1.62
NCLRVYVAGRF [CRB1_Y711_E710V] 0.504
